# Reference: PMC6919601, “Identification of Plasmodium dipeptidyl aminopeptidase allosteric inhibitors by high throughput screening” (PLoS ONE, 2019)
# The whole screen tested about 110,000 compounds, of which about 230 (0.21%) showed an effect of 50% or more. The list shows a part of the results.
# Biological target: DPAP1 (Plasmodium falciparum, UniProt Q8IIJ9)
# Assay: primary screen, percent inhibition; read by cleavage of a fluorogenic dipeptide substrate; higher = more effect of the substance
# Parameters: species or system P. falciparum D10 trophozoite lysates; single well
# 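Note: 30 min substrate incubation versus DMSO and 10 µM JCP410 controls.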
# DPAP1, sequence (Q8IIJ9 whole entry, looked up): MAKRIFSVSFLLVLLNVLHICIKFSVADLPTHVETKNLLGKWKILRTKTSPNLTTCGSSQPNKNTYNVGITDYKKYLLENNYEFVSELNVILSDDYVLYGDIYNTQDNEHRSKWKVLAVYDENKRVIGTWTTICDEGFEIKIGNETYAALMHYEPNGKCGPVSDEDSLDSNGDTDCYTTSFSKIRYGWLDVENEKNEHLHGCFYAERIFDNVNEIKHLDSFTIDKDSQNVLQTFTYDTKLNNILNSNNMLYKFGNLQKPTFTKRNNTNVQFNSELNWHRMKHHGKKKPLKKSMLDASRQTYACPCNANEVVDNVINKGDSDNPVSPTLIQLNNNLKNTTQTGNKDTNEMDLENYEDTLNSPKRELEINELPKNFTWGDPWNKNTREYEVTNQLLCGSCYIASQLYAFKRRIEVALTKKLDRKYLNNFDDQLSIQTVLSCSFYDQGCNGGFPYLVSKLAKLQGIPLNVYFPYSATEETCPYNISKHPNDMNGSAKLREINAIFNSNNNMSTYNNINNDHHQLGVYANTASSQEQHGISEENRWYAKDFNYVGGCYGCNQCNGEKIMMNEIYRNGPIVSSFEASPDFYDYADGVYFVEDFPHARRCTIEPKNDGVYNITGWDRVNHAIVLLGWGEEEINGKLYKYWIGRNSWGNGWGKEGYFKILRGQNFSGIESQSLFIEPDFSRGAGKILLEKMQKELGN
row,Compound,% Inhibition @ 10 uM
1,Cc1[nH]c2ccccc2c1-c1cc2c3c(C)n(C)c(C)c3c(C)nn2c1,-4.75%
2,COc1cccc(-c2nc3ccc4ccccc4c3c3c2CCC3)c1OC,1%
3,O=C(CCC1CCCCC1)NC1(C(F)(F)F)N=C(c2ccccc2)NC1=O (stereo not shown),-4.68%
4,Cc1ccc(S(=O)(=O)N(CC(=O)NC2CC2)c2ccccc2)cc1,4.83%
5,COc1cccc(C(=O)Nc2c3c(nn2-c2ccc(C)cc2C)CS(=O)(=O)C3)c1,11%
6,CCN1C(=O)C(CC(=O)Nc2c(C)cccc2C)S/C1=N/c1ccc(S(N)(=O)=O)cc1 (stereo not shown),-18.8%
7,O=C(NCc1ccc2c(c1)OCO2)c1cc(-c2ccccc2)c(N2CCOCC2)s1,-4.69%
8,CC1OC(Nc2cccc3ccccc23)C(O)C(O)C1O (stereo not shown),-0.216%
9,O=C(NC(=O)c1ccc2ccccc2c1)Nc1ccc(Br)cc1,0.634%
10,Brc1cccc(CN2CCN(c3ccccc3)CC2)c1,-0.0404%
11,Cc1nnc(NC(=O)CSc2ccc(-c3ccncc3)nn2)s1,4.06%
12,COc1cccc(S(=O)(=O)Nc2ccc(C(=O)N3CCCCC3C)cc2)c1 (stereo not shown),0.709%
13,CN(c1ccc(C(=O)N2CCC(C(N)=O)CC2)cc1)S(C)(=O)=O,-2.75%
14,Cc1nc(O)c(C(c2cc([N+](=O)[O-])ccc2O)c2c(O)nc(C)nc2O)c(O)n1,-4.02%
15,Cc1ccccc1NC(=O)CN1C(=O)c2cccc3cccc1c23,1.69%
16,CCc1ccccc1NC(=O)/C=C/c1cccc([N+](=O)[O-])c1,1.08%
17,COc1ccc(C(=O)Nc2ccc(O)cc2)cc1Cl,10.7%
18,CC(C)OCCCNC(=O)CNC(=S)N1CC2CC(C1)c1cccc(=O)n1C2 (stereo not shown),2.79%
19,CC(C)NOC(=O)c1ccc(Cl)cc1,-2.6%
20,CCNC(=O)c1c(O)c2ccccc2n(C)c1=O,-3.38%
21,O=C(NCc1ccco1)c1ccc(-n2c(-c3ccccc3)nc3cccnc32)cc1,0.967%
22,O=C(NC1(C(F)(F)F)C(=O)Nc2c1c(=O)[nH]c(=O)n2-c1ccc(Cl)cc1)c1ccccc1Cl (stereo not shown),0.231%
23,O=C(NCc1cccnc1)NCc1noc2ccccc12,2.22%
24,Cc1cc(NC(=O)CSCCc2ccncc2)no1,4.47%
25,Cc1cc(C)cc(-n2nnc(C(=O)NCCNC(=O)c3nnn(-c4cc(C)cc(C)c4)c3N)c2N)c1,7.56%

row,Compound,% Inhibition @ 10 uM
1,Cc1cc(C)c2nc(N3CCC(C(=O)NC(C)c4ccc5c(c4)OCCO5)CC3)sc2c1 (stereo not shown),4.95%
2,CC1CN(C(=O)c2ccccc2F)C(C)CN1C(=O)c1ccccc1F (stereo not shown),3.67%
3,Cc1noc2ncnc(N3CCN(Cc4ccccc4)CC3)c12,2.76%
4,Cc1ccc2oc(=O)c3cc(C(=O)Nc4cccc(C)n4)sc3c2c1,-4.94%
5,Cc1ccc(C2C(C(=O)c3ccc(C)o3)=C(O)C(=O)N2c2ncccn2)cc1 (stereo not shown),-5.31%
6,CC(C)C[C@H](NC(=O)OCC1CCCCC1)C(=O)NCC#N,-6.46%
7,CC(C)Sc1nc2c(c(=O)[nH]c(=O)n2C)n1Cc1cccc(Br)c1,0.746%
8,CC1=C(c2ccc(C(C)C)cc2)S(=O)(=O)N=C1NCCc1ccc(Cl)cc1,2.27%
9,CCOc1ccc(C(=O)N(Cc2ccc(Cl)cc2)Cc2ccco2)cc1,-0.45%
10,CCN1CCCC1CNS(=O)(=O)c1cc(-c2cc(C)no2)ccc1C (stereo not shown),-5.12%
11,CC(C)CCN1CCC(CNS(=O)(=O)c2ccc(-c3ccc(O)nn3)s2)CC1,-8.65%
12,Cc1nc2c(c(C)c1CCC(=O)NCc1ccc3c(c1)OCO3)c(=O)n(C)c(=O)n2C,0.44%
13,COc1ccc(C2Sc3ccccc3N=C3C2=C(O)c2ccccc23)cc1 (stereo not shown),0.98%
14,COc1ccc(CC(=O)Nc2c(C(=O)N3CCN(c4ncccn4)CC3)oc3ccccc23)cc1,4.6%
15,COc1ccc(NC(=O)CSCC(=O)Nc2ccccc2F)cc1,3.5%
16,CCc1ccc(N2C(=O)C(Cl)=C(Nc3cccc(C(=O)O)c3)C2=O)cc1,4%
17,COc1ccc(C(=O)Nc2sc3c(c2C#N)CCC(C)C3)cc1OC (stereo not shown),0.317%
18,CCOc1ccc(CNc2ccc(CNc3nc[nH]n3)cc2)cc1,-1.61%
19,CN1C(=O)C(=CNc2ccccc2Cl)C(=O)N(C)C1=O,4.07%
20,Cc1ccc(CNC(=O)c2cnc3ccccn3c2=O)cc1,-1.88%
21,Cc1cc(/C=C2\C(=N)N3N=C(S(=O)(=O)CC(C)C)SC3=NC2=O)c(C)n1-c1ccccc1,-3.35%
22,Cc1nn(C)c(C)c1CN(C)S(=O)(=O)c1c(C)c(C)c(C)c(C)c1C,-3.45%
23,Cc1ccc(NC(=O)C(C#N)=C2CCCCCC2)cc1,0.983%
24,CCn1cc(/C=C(\NC(=O)c2ccccc2)C(=O)NC(C)C)c2ccccc21,-1.96%
